This note sets out measurements from US20250019440A1 (Zymeworks, published 2025).

The target in test [1] is T1, Human PD-L1 (human, UniProt Q9NZQ7 partial chain).
T1 construct: Amine-coupled to a CM5 chip for SPR; also called recombinant human PD-L1
Put plainly: SPR, PD-L1 amine-coupled, variant as analyte, 1:1 model. For orientation: SPR reads the build-up and loss of mass on a sensor chip optically.

The target in test [2] is T2, Human PD-L2 (human, UniProt Q9BQ51 20-219).
T2 construct: Amine-coupled to a CM5 chip for SPR; also called recombinant PD-L2
T2 sequence (looked up): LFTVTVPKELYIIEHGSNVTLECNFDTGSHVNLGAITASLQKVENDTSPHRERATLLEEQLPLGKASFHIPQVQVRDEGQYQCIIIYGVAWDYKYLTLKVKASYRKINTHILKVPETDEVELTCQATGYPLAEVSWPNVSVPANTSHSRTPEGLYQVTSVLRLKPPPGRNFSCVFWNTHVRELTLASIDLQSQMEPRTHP
Put plainly: SPR, PD-L2 amine-coupled, variant as analyte, 1:1 model.

Another test has as its target T3, Human mesothelin (human, UniProt Q13421 296-580, limits assumed).
T3 construct: Amine-coupled to a CM5 chip for SPR; also called MSLN; recombinant human mesothelin
Put plainly: SPR, mesothelin amine-coupled; apparent KD, variant binds mesothelin bivalently but was fit 1:1.

In test [3] the target is Human CD3 (recombinant) (human). Put plainly: SPR, CD3 amine-coupled, variant as analyte, 1:1 model.
In test [4] the target is T1, Human PD-L1. Put plainly: SPR, PD-L1 amine-coupled, variant as analyte, 1:1 model. The source holds these as a separate data set.
T1 sequence (Q9NZQ7 19-239 limits assumed): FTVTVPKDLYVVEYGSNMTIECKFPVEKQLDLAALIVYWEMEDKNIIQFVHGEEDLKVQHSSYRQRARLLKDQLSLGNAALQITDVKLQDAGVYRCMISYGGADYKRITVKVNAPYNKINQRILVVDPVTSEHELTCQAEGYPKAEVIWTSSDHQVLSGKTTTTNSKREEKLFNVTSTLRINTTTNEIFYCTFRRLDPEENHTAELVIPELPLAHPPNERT
Test [5] has as its target T2, Human PD-L2. Put plainly: SPR, PD-L2 amine-coupled, variant as analyte.
For test [6], the target named is Human CD3 (recombinant) (human). Put plainly: SPR, CD3 amine-coupled, variant as analyte, 1:1 model. This is another data set of the same source.
The target of test [7] is T1, Human PD-L1. Put plainly: SPR, PD-L1 amine-coupled, variant as analyte, 1:1 model. This is another data set of the same source.
In a further test the target is T4, Cynomolgus monkey PD-L1 (cynomolgus monkey, UniProt G7PSE7 19-239).
T4 construct: Amine-coupled to a CM5 chip for SPR; also called recombinant cynomolgus monkey PD-L1
The test is described as above.

A further test deals with T5, Mouse PD-L1 (mouse, UniProt Q9EP73 partial chain, limits assumed).
T5 construct: Amine-coupled to a CM5 chip for SPR; also called recombinant mouse PD-L1
The description is as above.

The target of test [8] is T1, Human PD-L1. Put plainly: SPR, PD-L1 amine-coupled, variant as analyte, 1:1 model; first of three variants in the merged cell (HAC PD-1).

Positions count from the first letter of the chain named. Like-named read-outs stand apart in the source and are kept apart here.

Human CD3 (recombinant), sequence (chain, as listed by the source): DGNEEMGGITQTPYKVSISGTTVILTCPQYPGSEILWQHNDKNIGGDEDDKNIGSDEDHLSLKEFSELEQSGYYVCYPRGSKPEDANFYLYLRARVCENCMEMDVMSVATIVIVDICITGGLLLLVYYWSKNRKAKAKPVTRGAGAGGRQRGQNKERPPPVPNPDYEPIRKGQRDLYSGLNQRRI
Cynomolgus monkey PD-L1, sequence (G7PSE7 entry or part of it): as the sequence (Q9NZQ7 19-239 limits assumed) above, with A33T, A34S, S62N, R68Q, Q82R, F173L, T185A, T192I, H215L counted along it
Human mesothelin, sequence (Q13421 other isoform, or with tags, fused parts or gaps limits assumed): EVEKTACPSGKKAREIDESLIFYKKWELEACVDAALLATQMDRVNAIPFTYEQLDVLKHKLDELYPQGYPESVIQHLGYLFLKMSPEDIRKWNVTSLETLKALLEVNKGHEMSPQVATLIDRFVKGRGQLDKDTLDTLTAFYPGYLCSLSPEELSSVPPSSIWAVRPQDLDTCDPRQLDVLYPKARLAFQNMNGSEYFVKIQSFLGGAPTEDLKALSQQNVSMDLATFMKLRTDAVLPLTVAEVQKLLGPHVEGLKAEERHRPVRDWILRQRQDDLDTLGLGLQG
Mouse PD-L1, sequence (Q9EP73 19-238 limits assumed): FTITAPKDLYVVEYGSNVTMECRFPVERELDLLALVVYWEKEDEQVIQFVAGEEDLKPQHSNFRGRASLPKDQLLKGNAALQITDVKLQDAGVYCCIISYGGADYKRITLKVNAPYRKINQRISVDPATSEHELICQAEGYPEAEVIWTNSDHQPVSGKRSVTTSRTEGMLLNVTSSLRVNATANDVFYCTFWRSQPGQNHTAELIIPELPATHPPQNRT

B1: v38917 (other)
heavy 1: DIQMTQSPSSLSASVGDRVTITCSASSSVSYMHWYQQKSGKAPKLLIYDTSKLASGVPSRFSGSGSGTDFTLTISSLQPEDFATYYCQQWSGYPLTFGQGTKLEIKGGGGSGGGGSGGGGSGGGGSQVQLVQSGAEVKKPGASVKVSCKASGYSFTGYTMNWVRQAPGQGLEWMGLITPYNGASSYNQKFRGKATMTVDTSTSTVYMELSSLRSEDTAVYYCARGGYDGRGFDYWGQGTLVTVSSGGGGSGEVQLVESGGGLVQPGGSLRLSCAASGVTFNYYGMSWIRQAPGKGLEWVASITSSGGRIYYPDSVKGRFTISRENTQKTLYLQMNSLRAEDTAVYYCTLDGRDGWVAYWGQGTLVTVSSASTKGPSVFPLAPSSKSTSGGTAALGCLVKDYFPEPVTVSWNSGALTSGVHTFPAVLQSSGLYSLSSVVTVPSSSLGTQTYICNVNHKPSNTKVDKK[human IgG1 Fc with changes not shown]
light: NFMLTQPHSVSESPGKTVTISCKRNTGNIGSNYVNWYQQHEGSSPTTIIYRNDKRPDGVSDRFSGSIDRSSKSASLTISNLKTEDEADYFCQSYSSGFIFGGGTKLTVLGQPKAAPSVTLFPPSSEELQANKATLVCLISDFYPGAVTVAWKADSSPVKAGVETTTPSKQSNNKYAASSYLSLTPEQWKSHRSYSCQVTHEGSTVEKTVAPTECS
heavy 2: NPPTFSPALLVVTEGDNATFTCSFSNTSESFVLNWYRMSPSNQTDKLAAFPEDRSQPGQDARFRVTQLPNGRDFHMSVVRARRNDSGTYLCGAISLAPKLQIKESLRAELRVTEGGGGSGDIQMTQSPSSLSASVGDRVTITCSASSSVSYMHWYQQKSGKAPKLLIYDTSKLASGVPSRFSGSGSGTDFTLTISSLQPEDFATYYCQQWSGYPLTFGQGTKLEIKGGGGSGGGGSGGGGSGGGGSQVQLVQSGAEVKKPGASVKVSCKASGYSFTGYTMNWVRQAPGQGLEWMGLITPYNGASSYNQKFRGKATMTVDTSTSTVYMELSSLRSEDTAVYYCARGGYDGRGFDYWGQGTLVTVSSAAEPKSSDKTHTCPPCPAPEAAGGPSVFLFPPKPKDTLMISRTPEVTCVVVSVSHEDPEVKFNWYVDGVEVHNAKTKPREEQYNSTYRVVSVLTVLHQDWLNGKEYKCKVSNKALPAPIEKTISKAKGQPREPQVYVLPPSRDELTKNQVSLLCLVKGFYPSDIAVEWESNGQPENNYLTWPPVLDSDGSFFLYSKLTVDKSRWQQGNVFSCSVMHEALHNHYTQKSLSLSPG
Regarding B1, the values for the Kd with Human PD-L1 [1] and with Human PD-L2 [2] were 0.11 µM and 0.12 µM, respectively.

B2: v38921 (other)
heavy 1: DIQMTQSPSSLSASVGDRVTITCSASSSVSYMHWYQQKSGKAPKLLIYDTSKLASGVPSRFSGSGSGTDFTLTISSLQPEDFATYYCQQWSGYPLTFGQGTKLEIKGGGGSGGGGSGGGGSGGGGSQVQLVQSGAEVKKPGASVKVSCKASGYSFTGYTMNWVRQAPGQGLEWMGLITPYNGASSYNQKFRGKATMTVDTSTSTVYMELSSLRSEDTAVYYCARGGYDGRGFDYWGQGTLVTVSSGGGGSGEVQLVESGGGLVQPGGSLRLSCAASGVTFNYYGMSWIRQAPGKGLEWVASITSSGGRIYYPDSVKGRFTISRENTQKTLYLQMNSLRAEDTAVYYCTLDGRDGWVAYWGQGTLVTVSSASTKGPSVFPLAPSSKSTSGGTAALGCLVKDYFPEPVTVSWNSGALTSGVHTFPAVLQSSGLYSLSSVVTVPSSSLGTQTYICNVNHKPSNTKVDKK[human IgG1 Fc with changes not shown]
light: B1 light
heavy 2: DIQMTQSPSSLSASVGDRVTITCSASSSVSYMHWYQQKSGKAPKLLIYDTSKLASGVPSRFSGSGSGTDFTLTISSLQPEDFATYYCQQWSGYPLTFGQGTKLEIKGGGGSGGGGSGGGGSGGGGSQVQLVQSGAEVKKPGASVKVSCKASGYSFTGYTMNWVRQAPGQGLEWMGLITPYNGASSYNQKFRGKATMTVDTSTSTVYMELSSLRSEDTAVYYCARGGYDGRGFDYWGQGTLVTVSSAAEPKSSDKTHTCPPCPAPEAAGGPSVFLFPPKPKDTLMISRTPEVTCVVVSVSHEDPEVKFNWYVDGVEVHNAKTKPREEQYNSTYRVVSVLTVLHQDWLNGKEYKCKVSNKALPAPIEKTISKAKGQPREPQVYVLPPSRDELTKNQVSLLCLVKGFYPSDIAVEWESNGQPENNYLTWPPVLDSDGSFFLYSKLTVDKSRWQQGNVFSCSVMHEALHNHYTQKSLSLSPGGGGGSGDRPWNPPTFSPALLVVTEGDNATFTCSFSNTSESFVLNWYRMSPSNQTDKLAAFPEDRSQPGQDARFRVTQLPNGRDFHMSVVRARRNDSGTYLCGAISLAPKLQIKESLRAELRVTE
As for B2, the Kd worked out at 0.42 µM in the test with Human PD-L1 [1] and 0.24 µM with Human PD-L2 [2].

B3: v38450 (other)
heavy 1: DIQMTQSPSSLSASVGDRVTITCSASSSVSYMHWYQQKSGKAPKLLIYDTSKLASGVPSRFSGSGSGTDFTLTISSLQPEDFATYYCQQWSGYPLTFGQGTKLEIKGGGGSGGGGSGGGGSGGGGSQVQLVQSGAEVKKPGASVKVSCKASGYSFTGYTMNWVRQAPGQGLEWMGLITPYNGASSYNQKFRGKATMTVDTSTSTVYMELSSLRSEDTAVYYCARGGYDGRGFDYWGQGTLVTVSSGGGGSGEVQLVESGGGLVQPGGSLRLSCAASGVTFNYYGMSWIRQAPGKGLEWVASITSSGGRIYYPDSVKGRFTISRENTQKTLYLQMNSLRAEDTAVYYCTLDGRDGWVAYWGQGTLVTVSSASTKGPSVFPLAPSSKSTSGGTAALGCLVKDYFPEPVTVSWNSGALTSGVHTFPAVLQSSGLYSLSSVVTVPSSSLGTQTYICNVNHKPSNTKVDKK[human IgG1 Fc with changes not shown]
light: B1 light
heavy 2: DIQMTQSPSSLSASVGDRVTITCSASSSVSYMHWYQQKSGKAPKLLIYDTSKLASGVPSRFSGSGSGTDFTLTISSLQPEDFATYYCQQWSGYPLTFGQGTKLEIKGGGGSGGGGSGGGGSGGGGSQVQLVQSGAEVKKPGASVKVSCKASGYSFTGYTMNWVRQAPGQGLEWMGLITPYNGASSYNQKFRGKATMTVDTSTSTVYMELSSLRSEDTAVYYCARGGYDGRGFDYWGQGTLVTVSSAAEPKSSDKTHTCPPCPAPEAAGGPSVFLFPPKPKDTLMISRTPEVTCVVVSVSHEDPEVKFNWYVDGVEVHNAKTKPREEQYNSTYRVVSVLTVLHQDWLNGKEYKCKVSNKALPAPIEKTISKAKGQPREPQVYVLPPSRDELTKNQVSLLCLVKGFYPSDIAVEWESNGQPENNYLTWPPVLDSDGSFFLYSKLTVDKSRWQQGNVFSCSVMHEALHNHYTQKSLSLSPGGGG[about 120 residues not shown]
As for B3, the Kd with Human PD-L1 [1] was 0.031 µM; with Human mesothelin, 0.00012 µM; with Human CD3 (recombinant) [3] it was 0.04 µM; with Human PD-L1 [4] it was 0.0067 µM. Moreover, in the test with Human PD-L2 [5], the binding result is reported as “no binding (tested: 7.17-500 nM)”.

B4: v38918 (other)
heavy 1: DIQMTQSPSSLSASVGDRVTITCSASSSVSYMHWYQQKSGKAPKLLIYDTSKLASGVPSRFSGSGSGTDFTLTISSLQPEDFATYYCQQWSGYPLTFGQGTKLEIKGGGGSGGGGSGGGGSGGGGSQVQLVQSGAEVKKPGASVKVSCKASGYSFTGYTMNWVRQAPGQGLEWMGLITPYNGASSYNQKFRGKATMTVDTSTSTVYMELSSLRSEDTAVYYCARGGYDGRGFDYWGQGTLVTVSSGGGGSGEVQLVESGGGLVQPGGSLRLSCAASGVTFNYYGMSWIRQAPGKGLEWVASITSSGGRIYYPDSVKGRFTISRENTQKTLYLQMNSLRAEDTAVYYCTLDGRDGWVAYWGQGTLVTVSSASTKGPSVFPLAPSSKSTSGGTAALGCLVKDYFPEPVTVSWNSGALTSGVHTFPAVLQSSGLYSLSSVVTVPSSSLGTQTYICNVNHKPSNTKVDKK[human IgG1 Fc with changes not shown]
light: B1 light
heavy 2: B1 heavy 2 with L100A
As for B4, the Kd in the test with Human PD-L1 [1] stood at 1.4 µM; in the test with Human PD-L2 [2], 0.67 µM.

B5: v38409 (other)
heavy 1: [about 120 residues not shown]GGGSGQVQLVESGGGLVQPGGSLRLSCSVSGIDLSSNPMIWVRQAPGKGLQYIGIIDTDGSTYYADWAKGRFTISKDSTTVYLQINSPRAEDTAVYYCARRLHGSSNGYYDDLWGQGTLVTVSSASTKGPSVFPLAPSSKSTSGGTAALGCLVKDYFPEPVTVSWNSGALTSGVHTFPAVLQSSGLYSLSSVVTVPSSSLGTQTYICNVNHKPSNTKVDKKVEPKSCDKTHTCPPCPAPEAAGGPSVFLFPPKPKDTLMISRTPEVTCVVVSVSHEDPEVKFNWYVDGVEVHNAKTKPREEQYNSTYRVVSVLTVLHQDWLNGKEYKCKVSNKALPAPIEKTISKAKGQPREPQVYVLPPSRDELTKNQVSLLCLVKGFYPSDIAVEWESNGQPENNYLTWPPVLDSDGSFFLYSKLTVDKSRWQQGNVFSCSVMHEALHNHYTQKSLSLSPG
light: DGQMTQSPSSVSASVGDRVTITCQASQSIYSYLSWYQQKPGQRPKLLIYKASTLASGVPSRFSGSGSGTDFTLTISSVQPEDFATYYCQQGYTVTNVDKNTFGGGTKVEIKRTVAAPSVFIFPPSDEQLKSGTASVVCLLNNFYPREAKVQWKVDNALQSGNSQESVTEQDSKDSTYSLSSTLTLSKADYEKHKVYACEVTHQGLSSPVTKSFNRGEC
heavy 2: EVQLVESGGGLVQPGGSLRLSCAASGVTFNYYGMSWIRQAPGKGLEWVASITSSGGRIYYPDSVKGRFTISRENTQKTLYLQMNSLRAEDTAVYYCTLDGRDGWVAYWGQGTLVTVSSGGGGSGGGGSGGGGSGGGGSNFMLTQPHSVSESPGKTVTISCKRNTGNIGSNYVNWYQQHEGSSPTTIIYRNDKRPDGVSDRFSGSIDRSSKSASLTISNLKTEDEADYFCQSYSSGFIFGGGTKLTVLA[human IgG1 Fc with changes not shown]
As for B5, the Kd with Human CD3 (recombinant) [6] is 0.04 µM; with Human PD-L1 [7], 0.0032 µM; with Cynomolgus monkey PD-L1, 0.0056 µM; with Mouse PD-L1 it was 0.013 µM; with Human PD-L1 [8] it was 0.0065 µM.
